# The supplement of paper PMC4604168 (melanoma cell lines)
# The other results are listed elsewhere or left out. Most values come without repeats; read them as rough.
# Test system: SkMel28
# Test: cell count relative to DMSO control; melanoma cells; higher = more viable cells
# Details: library dose: standard library concentration; 72 h
# 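Note: cells treated in 1,536-well plates, then fixed and DAPI-stained, with nuclei counted from automated high-throughput microscope images.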
row,SMILES,cell count [%]
1,"CC1(C)CCC(c2ccc(Cl)cc2)=C(CN2CCN(c3ccc(C(=O)NS(=O)(=O)c4ccc(N[C@H](CCN5CCOCC5)CSc5ccccc5)c(S(=O)(=O)C(F)(F)F)c4)cc3)CC2)C1 + Cc1cc([N+](=O)[O-])ccc1NS(=O)(=O)c1cc(Cl)ccc1Cl [FH535] (first compound 2 µM, partner dose 5 µM)",42.5
2,"O=C(/C=C/c1cccnc1)NCCCCC1CCN(C(=O)c2ccccc2)CC1 + CCc1ccc(CCOc2ccc(CC3SC(=O)NC3=O)cc2)nc1 [pioglitazone] (first compound 0.05 µM, partner dose 10 µM)",71.2
3,"Cc1ccc(Nc2nccc(N(C)c3ccc4c(C)n(C)nc4c3)n2)cc1S(N)(=O)=O [Pazopanib] + COc1cc(N2CCC(N3CCN(C)CC3)CC2)ccc1Nc1ncc(Cl)c(Nc2ccccc2S(=O)(=O)C(C)C)n1 [NVP-TAE684] (first compound 2 µM, partner dose 0.4 µM)",71.4
4,"O=C(/C=C/c1cccnc1)NCCCCC1CCN(C(=O)c2ccccc2)CC1 + COc1ccc(-c2ccc3c(N4CCOCC4)nc(N4C[C@@H](C)O[C@@H](C)C4)nc3n2)cc1CO [KU0063794] (first compound 0.05 µM, partner dose 0.1 µM)",76.2
5,"Cc1ccc(Nc2nccc(N(C)c3ccc4c(C)n(C)nc4c3)n2)cc1S(N)(=O)=O [Pazopanib] + CCN(CC)CCCCNc1ncc2cc(-c3cc(OC)cc(OC)c3)c(NC(=O)NC(C)(C)C)nc2n1 [PD173074] (first compound 2 µM, partner dose 0.5 µM)",86.7
